Source: the supplement of paper PMC3334620
Whole data set: some 33,000 sequences, median “E-score (-0.5 to 0.5)” near -0.041, cut for the highest 2% near 0.37. The list shows a part of the results.

The sequences below were run against T1, Ecm22 (UniProt Q05958) (assay: PBM E-score (8-mer binding enrichment) (E-score (-0.5 to 0.5)); higher = stronger / more preferred TF binding; most listed sequences are background and not binding sites). Conditions: protein concentration: 200 nM; construct: GST-full length.
T1 sequence: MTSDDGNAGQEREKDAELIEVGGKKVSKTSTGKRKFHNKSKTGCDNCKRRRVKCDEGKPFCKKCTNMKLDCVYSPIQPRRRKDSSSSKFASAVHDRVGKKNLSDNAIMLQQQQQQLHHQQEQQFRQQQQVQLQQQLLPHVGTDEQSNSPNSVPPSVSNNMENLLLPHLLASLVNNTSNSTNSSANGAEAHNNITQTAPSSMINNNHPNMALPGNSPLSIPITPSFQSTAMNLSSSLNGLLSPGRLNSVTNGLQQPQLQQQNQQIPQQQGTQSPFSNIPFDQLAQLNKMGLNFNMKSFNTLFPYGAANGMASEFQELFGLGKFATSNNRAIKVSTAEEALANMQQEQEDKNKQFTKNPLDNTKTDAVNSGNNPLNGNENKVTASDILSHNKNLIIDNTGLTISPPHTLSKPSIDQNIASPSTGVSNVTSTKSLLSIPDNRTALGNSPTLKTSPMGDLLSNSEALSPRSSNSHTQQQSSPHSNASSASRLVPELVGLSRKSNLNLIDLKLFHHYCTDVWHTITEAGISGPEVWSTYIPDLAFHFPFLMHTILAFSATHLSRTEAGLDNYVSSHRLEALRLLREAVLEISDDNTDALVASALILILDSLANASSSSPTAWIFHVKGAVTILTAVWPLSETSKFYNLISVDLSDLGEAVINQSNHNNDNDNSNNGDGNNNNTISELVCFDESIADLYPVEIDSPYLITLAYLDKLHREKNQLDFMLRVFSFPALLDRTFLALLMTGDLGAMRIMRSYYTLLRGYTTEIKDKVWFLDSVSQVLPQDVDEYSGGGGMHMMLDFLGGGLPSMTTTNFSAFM
How it was run: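 For each ungapped eight-base word taken together with its reverse complement, the Universal PBM Analysis Suite assigned an E-score. Binding data came from GST-tagged yeast transcription factors, applied at about 100-200 nM, on universal all-10-mer Agilent arrays made double-stranded by primer extension. Fluorescent anti-GST marked bound protein, and scans were normalised with masliner.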

Row | Sequence | PBM E-score
1 | AGCACTAA | 0.0469
2 | CATTGAGG | -0.15
3 | CCTTGGTA | -0.0661
4 | AGTTCTCC | -0.164
5 | GCTTGTAA | -0.00771
6 | CTAAATCC | 0.164
7 | ATCCATGG | -0.168
8 | CGGGATTC | 0.211
9 | CTTTGGTC | -0.0249
10 | AACGCTAA | 0.0112
11 | ATGTTTCA | -0.0169
12 | GAAGGGAC | -0.144
13 | AAGACCAT | -0.162
14 | CCGGGACC | -0.0626
15 | CTCACAAG | -0.25
16 | CGTATATA | 0.444
17 | GAGATCAA | 0.0365
18 | AAGCTGAT | -0.154
19 | CCCCGAAG | -0.171
20 | CCTATAGA | -0.0855
21 | CACAGCAC | -0.184
22 | ACAAGTAC | 0.197

Row | Sequence | PBM E-score
23 | GGCTACAC | -0.0237
24 | AGGACAAG | 0.00262
25 | AATTTTCG | 0.07
26 | GGATCAAA | -0.0427
27 | GGATCGCC | 0.0498
28 | AAAGACGA | 0.0718
29 | AGGGAGAG | -0.207
30 | GACAGGTA | -0.0754
31 | CATCTCCG | 0.0419
32 | AAGCCACA | -0.109
33 | CCCACTCC | -0.145
34 | ATTCTTCC | -0.227
35 | GCACACCA | -0.094
36 | CCGCCATA | -0.0249
37 | ATGTCTGC | -0.154
38 | AACGACCC | 0.386
39 | GCACTATA | 0.196
40 | GTCCATTA | 0.0272
41 | CCCGGAGC | 0.0701
42 | TCGCGTCA | 0.0567
43 | CACAGACA | -0.147
44 | CCGATAAA | -0.0442

Row | Sequence | PBM E-score
45 | GGGTGATA | 0.032
46 | CTCCTAAG | -0.35
47 | AGGGGCCG | -0.255
48 | ATGCATTG | -0.0737
49 | CGCGATAA | 0.0651
50 | CAGATGGA | 0.0554
51 | ACTACACA | 0.154
52 | TGACAGAA | 0.0256
53 | ATGAAAAC | 0.155
54 | AACAGGTC | 0.0282
55 | GATATACA | 0.0768
56 | ACTCCGTG | -0.233
57 | ACCTTGTC | -0.171
58 | AGAGTTCC | -0.101
59 | AGAGTCCG | -0.0869
60 | AAACTGGG | -0.243
61 | ATTACGCA | 0.0632
62 | CTATGCCC | 0.00213
63 | ATTCCATG | -0.0307
64 | AAACCTCT | -0.177
65 | CGAGGTCC | 0.134
66 | GACCATCC | -0.0932

Row | Sequence | PBM E-score
67 | TAGTGTCA | -0.0182
68 | AGAATCCT | -0.317
69 | AGCTTCAA | -0.153
70 | TCCCGGAA | -0.081
71 | ATTCACCC | -0.123
72 | ATTTTAAC | 0.117
73 | AAGACAGC | -0.272
74 | CGAGAGAA | 0.197
75 | CGAGGCAC | 0.148
76 | CCGTAATA | 0.228
77 | CTCGTTTC | 0.453
78 | GGAATTAC | 0.195
79 | AATAGGAT | -0.00412
80 | CGCTCTCA | 0.0445
81 | TACGTTGA | 0.208
82 | AGAACTCC | -0.0233
83 | GAGGTTGC | -0.0862
84 | GTGGGGTA | 0.0596
85 | ACTCGTTG | 0.274
86 | AACATGAA | -0.016
